This is one part of the list.

The subject of the assay is S. aureus RN4220. Put plainly: growth inhibition call (relative growth <= 0.2). The note with it: 50 µM.
`C[C@H]1CCCCO[C@H](CN(C)C(=O)Nc2ccc(F)cc2)[C@@H](C)CN([C@@H](C)CO)C(=O)c2cc(NS(=O)(=O)c3ccccc3)ccc2O1`: the growth inhibition call is “inactive”.

On to `C[C@@H]1CN([C@H](C)CO)C(=O)CCCn2nncc2CO[C@@H]1CN(C)C(=O)CCCN(C)C`, for which the growth inhibition call is “inactive”. On to `CSC(=N)NCCC[C@@H](N)C(=O)O`, for which the growth inhibition call was “inactive”.

For `C[C@@H]1CCCCO[C@H](CN(C)C(=O)NC2CCCCC2)[C@@H](C)CN([C@@H](C)CO)C(=O)c2cc(NS(=O)(=O)c3ccccc3)ccc2O1`, the growth inhibition call was “inactive”.

As to `CC(C)NC(=O)N(C)C[C@@H]1Oc2ccc(NC(=O)NC3CCCCC3)cc2C(=O)N([C@@H](C)CO)C[C@@H]1C`, the growth inhibition call is “inactive”. Take `COc1ccc(S(=O)(=O)Nc2ccc3c(c2)CC(=O)N([C@@H](C)CO)C[C@@H](C)[C@H](CN(C)S(=O)(=O)c2ccccc2)O3)cc1`: the growth inhibition call is “inactive”.

As to `C[C@@H]1CN([C@H](C)CO)C(=O)c2cc(NC(=O)C3CC3)ccc2O[C@@H]1CN(C)Cc1ccc(Oc2ccccc2)cc1`, the growth inhibition call was “inactive”. As for `C[C@@H]1CN([C@@H](C)CO)S(=O)(=O)c2ccc(-c3cccc(C#N)c3)cc2O[C@H]1CN(C)C(=O)c1ccncc1`, the growth inhibition call is “inactive”. Take `CCS(=O)(=O)N1CC[C@]2(CC1)CN([C@@H](CO)c1[nH]c3cc(ccc3c12)OC)C(=O)c1ccc(cc1)F`: the growth inhibition call was “inactive”. Next, `Cc1ccc(S(=O)(=O)Nc2ccc3c(c2)C(=O)N([C@H](C)CO)C[C@H](C)[C@H](CN(C)C(=O)Nc2c(C)noc2C)OCCCC[C@@H](C)O3)cc1`: “inactive”; `C[C@@H]1CN([C@@H](C)CO)C(=O)c2cc(NS(=O)(=O)c3cccs3)ccc2O[C@@H](C)CCCCO[C@H]1CN(C)Cc1ccc(C(F)(F)F)cc1`: “inactive”; `COc1ccc(S(=O)(=O)Nc2ccc3c(c2)C(=O)N([C@H](C)CO)C[C@@H](C)[C@@H](CN(C)Cc2ccc(Oc4ccccc4)cc2)O3)cc1`: “inactive”.

As to `O=C(C[C@H]1C[C@H]2c3cc(NC(=O)Nc4ccc(C(F)(F)F)cc4)ccc3O[C@H]2[C@@H](CO)O1)NCc1cc(F)ccc1F`, the growth inhibition call is “inactive”. `CCOC(=O)[C@@H]1C(Cc2ccccc2)=CN(CCc2ccc(OC)c(OC)c2)C(=O)N1c1ccc(OC)cc1`: the growth inhibition call is “inactive”. On to `CCCN(C)C[C@H]1OCCCC[C@@H](C)Oc2ccc(NC(=O)Cc3ccccc3)cc2C(=O)N([C@H](C)CO)C[C@H]1C`, for which the growth inhibition call was “inactive”. Regarding `NCc1ccc(C(=O)N2CCCCC2)cc1`, the growth inhibition call was “inactive”. Next, `C[C@H](CO)N1C[C@H](C)[C@H](CN(C)C(=O)CN2CCOCC2)Oc2cc(C#Cc3cccc(F)c3)ccc2S1(=O)=O`: “inactive”; `Cc1ccc(S(=O)(=O)N(C)C[C@H]2Oc3c(NS(=O)(=O)c4cn(C)cn4)cccc3C(=O)N([C@H](C)CO)C[C@H]2C)cc1`: “inactive”. For the compound `NCc1c[nH]nc1-c1ccccc1`, the growth inhibition call was “inactive”. For `COC(=O)[C@@H]1C[C@H](C#N)N[C@@H]1c1ccccn1`, the growth inhibition call was “inactive”.

Regarding `O=C1CCCSc2ccccc21`, the growth inhibition call was “inactive”. Next, `CS(=O)(=O)N1CCOC[C@@]2(C1)CN(S(=O)(=O)C1CC1)CCO2`: “inactive”; `c1ccc2c(CSc3nc4ccccc4o3)cccc2c1`: “inactive”. Turning to `CCc1nc2ccc(C(=O)Nc3cc(-c4ccccc4)ccc3OC)cn2c1N(C)C(=O)Cc1ccccc1`, the growth inhibition call was “inactive”. Consider `C[C@H]1CN([C@@H](C)CO)C(=O)c2cc(NS(=O)(=O)c3cn(C)cn3)ccc2O[C@H]1CN(C)Cc1ccccc1`, for which the growth inhibition call was “inactive”. For the compound `COCC(=O)N1C[C@H](C)[C@H](OC)CN(C)C(=O)c2cc(NC(=O)Nc3cccc(F)c3)ccc2OC[C@@H]1C`, the growth inhibition call was “inactive”. Regarding `CNC(=NC#N)NCCSCc1nc[nH]c1C`, the growth inhibition call was “inactive”.

On to `C[C@@H]1CCCCO[C@H](CN(C)S(=O)(=O)c2cccs2)[C@@H](C)CN([C@@H](C)CO)C(=O)c2cc(NC(=O)Nc3ccc(F)cc3)ccc2O1`, for which the growth inhibition call was “inactive”. As for `C[C@H](CO)N1C[C@H](C)[C@@H](CN(C)S(=O)(=O)c2ccc(Cl)cc2)OCCCC[C@H](C)Oc2ccc(NC(=O)Nc3ccccc3)cc2C1=O`, the growth inhibition call was “inactive”.

For `CC1(C)CCC2(C(=O)O)CCC3(C)C(=CCC4C5(C)CCC(O)C(C)(C)C5CCC43C)C2C1` (stereo not given), the growth inhibition call is “inactive”. Turning to `CN1CCN2c3ccccc3Cc3ccccc3C2C1.Cl` (stereo not given), the growth inhibition call is “inactive”.

As to `C[C@@H]1CCCCO[C@H](CN(C)Cc2ccncc2)[C@@H](C)CN([C@@H](C)CO)C(=O)c2cc(NC(=O)Nc3ccc(F)cc3)ccc2O1`, the growth inhibition call was “inactive”. For `Cc1cc(C(=O)Nc2cccc3c2O[C@H](CN(C)S(=O)(=O)c2ccc(F)cc2)[C@@H](C)CN([C@@H](C)CO)C3=O)n(C)n1`, the growth inhibition call is “inactive”. Turning to `O=C(NC1Cc2ccccc2C1)[C@@H]1[C@@H](CO)[C@@H]2Cn3c(cccc3=O)[C@@H]2N1C(=O)c1cnccn1`, the growth inhibition call was “inactive”.

As to `C/C=C/c1ccc2c(c1)O[C@H](CN(C)S(=O)(=O)c1ccccc1OC)[C@@H](C)CN([C@H](C)CO)S2(=O)=O`, the growth inhibition call was “inactive”. Next, `C[C@@H]1CCCCO[C@H](CN(C)C(=O)Nc2cccc3ccccc23)[C@@H](C)CN([C@H](C)CO)C(=O)c2cc(NC(=O)CCC(F)(F)F)ccc2O1`: “inactive”. Take `CC(C)[C@@H](N)C(=O)O`: the growth inhibition call was “inactive”. `C(=N\c1ccccc1)/c1ccccc1`: the growth inhibition call was “inactive”. With `C[C@@H]1CN([C@@H](C)CO)C(=O)c2cc(NC(=O)NC3CCCCC3)ccc2O[C@H]1CN(C)Cc1ccc(Cl)c(Cl)c1`, the growth inhibition call is “inactive”. Turning to `C[C@H]1CN([C@@H](C)CO)C(=O)c2cccc(NC(=O)c3ccc(-c4nccs4)cc3)c2O[C@@H]1CN(C)Cc1ccc(-c2ccccc2)cc1`, the growth inhibition call is “inactive”.

The values above are taken from the antibiotic and cytotoxicity screens of Wong et al. (2023).
